# In all, about 310,000 compounds went through this assay and about 2,200 (0.71%) showed an effect of 50% or more. Effects have a minus sign here. The list shows a part of the results.
# Molecular target: human ether-à-go-go-related gene (hERG) potassium channel (human, UniProt Q12809)
# Assay: primary screen, population patch clamp on CHO cells stably expressing hERG
# human ether-à-go-go-related gene (hERG) potassium channel, sequence (Q12809 whole entry, looked up): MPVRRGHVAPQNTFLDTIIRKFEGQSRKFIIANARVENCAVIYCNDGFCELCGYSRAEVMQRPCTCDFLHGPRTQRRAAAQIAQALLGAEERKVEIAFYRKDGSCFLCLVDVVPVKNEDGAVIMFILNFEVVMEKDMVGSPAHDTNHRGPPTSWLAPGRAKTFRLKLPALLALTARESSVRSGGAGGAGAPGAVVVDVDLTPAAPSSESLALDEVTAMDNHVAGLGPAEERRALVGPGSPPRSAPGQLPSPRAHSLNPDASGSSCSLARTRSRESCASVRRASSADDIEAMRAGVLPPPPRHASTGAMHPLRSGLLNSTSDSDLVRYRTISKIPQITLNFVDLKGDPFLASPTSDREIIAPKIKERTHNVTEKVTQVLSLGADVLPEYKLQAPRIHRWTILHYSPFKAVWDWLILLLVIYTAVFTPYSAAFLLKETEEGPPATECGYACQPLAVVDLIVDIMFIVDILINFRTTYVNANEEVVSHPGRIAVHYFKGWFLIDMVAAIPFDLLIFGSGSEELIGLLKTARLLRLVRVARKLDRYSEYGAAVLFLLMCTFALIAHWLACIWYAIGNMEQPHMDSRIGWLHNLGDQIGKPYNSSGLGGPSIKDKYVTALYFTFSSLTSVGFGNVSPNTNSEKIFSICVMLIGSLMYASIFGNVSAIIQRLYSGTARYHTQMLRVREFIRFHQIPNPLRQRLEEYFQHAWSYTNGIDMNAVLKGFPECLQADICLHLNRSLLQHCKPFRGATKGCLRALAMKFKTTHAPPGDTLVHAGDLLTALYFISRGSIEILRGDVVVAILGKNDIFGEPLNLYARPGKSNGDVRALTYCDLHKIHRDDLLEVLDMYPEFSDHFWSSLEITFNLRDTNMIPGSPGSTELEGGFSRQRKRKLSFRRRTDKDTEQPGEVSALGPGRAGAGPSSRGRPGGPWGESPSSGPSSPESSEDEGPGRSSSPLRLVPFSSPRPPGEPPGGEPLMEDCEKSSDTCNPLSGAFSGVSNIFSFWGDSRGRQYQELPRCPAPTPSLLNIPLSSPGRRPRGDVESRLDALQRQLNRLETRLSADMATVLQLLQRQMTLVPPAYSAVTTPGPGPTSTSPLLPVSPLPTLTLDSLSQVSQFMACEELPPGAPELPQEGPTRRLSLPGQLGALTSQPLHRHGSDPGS
row,SMILES,"hERG current change (%, negative = inhibition) at 1uM [%]"
1,COc1cc(C(=O)NCC(C)C)c([N+](=O)[O-])cc1OC,13.4
2,CN(C)/C=C/C(=O)c1ccc(N2CCN(c3ncc(C(F)(F)F)cc3Cl)CC2)cc1,5.67
3,O=C1CCCC(=O)C1=C1SCCS1,4.92
4,CCOc1ccc(N(CC(=O)NCc2ccc(Cl)cc2)S(=O)(=O)c2c(C)noc2C)cc1,13.8
5,COCCn1c(N)c(N(Cc2ccccc2)C(=O)CN2C(=O)NC(C)(c3ccccc3)C2=O)c(=O)[nH]c1=O (stereo not shown),12.6
6,Cc1ccccc1OCC(=O)NNC(=S)NC(=O)c1ccccc1[N+](=O)[O-],5.05
7,Cc1ccccc1C(=O)NNC(=O)CSc1nc2ccccc2c(=O)[nH]1,5.7
8,COc1ccc(Cl)cc1N(CC(=O)N1CCCC1)S(=O)(=O)c1ccc(C)cc1,7.19
9,C=CCn1c(=N)n(CC(O)c2ccco2)c2ccccc21.Cl (stereo not shown),-10.2
10,O=C(CSc1nc2ccccc2n1Cc1ccccc1)N/N=C/c1ccccc1C(=O)O,13.6
11,O=C(NCCN1CCOCC1)c1ccc2c(c1)N(Cc1cccc(F)c1)C(=O)c1ccccc1S2,9.11
12,Clc1ncnc2scc(-c3ccccc3)c12,11
13,CC(=O)c1cccc(NS(=O)(=O)c2ccc(NC(=O)N3CCCCC3)cc2)c1,12.6
14,CCOC(=O)c1c(NC(=S)NNS(=O)(=O)c2ccc(Br)cc2)sc2c1CCCCC2,19.1
15,CCOc1ccc(NC(=O)Cc2nnc(SCC(=O)N3CCOCC3)n2C)cc1,7.73
16,CC1CCN(C(=O)CSc2nc3c(cnn3-c3ccccc3)c(=O)[nH]2)CC1,13.6
17,CCOc1cccc(NC(=O)/C(C#N)=C/c2cccnc2)c1,8.36
18,Cc1ccc(N2C(=O)CC(NNc3nc4ccccc4s3)C2=O)cc1C (stereo not shown),-9.34
19,COc1ccc(C(=O)Nc2cccnc2)cc1,21
20,CCOc1ccc(N2C(=O)C(Cl)=C(Nc3ccccc3O)C2=O)cc1,-0.345
21,C/C(=N\NC(=O)Cc1cccn1C)c1cccc2ccccc12,13.6
22,O=C(Nc1ccccc1Cl)OC1CN2CCC1CC2 (stereo not shown),0.204

row,SMILES,"hERG current change (%, negative = inhibition) at 1uM [%]"
1,CCOC(=O)C1=C(c2ccccc2)NC(N)=NC1c1ccc(OCc2ccc(Cl)cc2)c(OC)c1 (stereo not shown),-3.4
2,C(=N\Nc1ccccn1)/c1cccnc1,13.1
3,COc1ccc(CNC(=O)C/C(C)=N/NC(=O)c2ccccc2OC)cc1,10.8
4,Cn1c(=O)cc(SCC(=O)N2CCOCC2)c2ccc(Cl)cc21,13.8
5,COc1ccc(C(=O)COC(=O)c2ccccc2C(=O)N(C)c2ccccc2)c(OC)c1,17.1
6,CN(C)CCC(c1ccccc1)c1ccccn1.O=C(O)/C=C\C(=O)O (stereo not shown),3.66
7,COc1ccccc1C(=O)NC(=O)COC(=O)c1cnc(C)cn1,11.5
8,COc1cccc(NC(=O)C(=O)NCCC2CCCCN2S(=O)(=O)c2ccccc2)c1 (stereo not shown),14.3
9,COc1cc([N+](=O)[O-])ccc1NC(=O)/C=C/C(=O)O,12.5
10,CCOC(=O)c1cnc(NCc2ccccc2)nc1C,-7.53
11,CCOc1ccc(-c2nc(C#N)c(NCC(C)C)o2)cc1,7.14
12,CN(C)S(=O)(=O)c1ccc(Cl)c(NC(=O)COC(=O)[C@@H]2CCCN2C(=O)c2cccs2)c1,15.7
13,O=C(CCNC(=O)c1ccc([N+](=O)[O-])cc1)N/N=C/c1ccc(F)cc1,-7.96
14,CN(CC(=O)NCc1ccc(F)cc1)S(=O)(=O)c1ccc(Br)s1,0.262
15,O=C(CN1C(=O)NC2(CCCC2)C1=O)N1CCN(c2cccc(C(F)(F)F)c2)CC1,0.68
16,CC(=O)Nc1cccc(N/C(N)=N/c2nc(C)cc(C)n2)c1,6.08
17,COc1cccc(-c2nc(N)nc(SC)c2C#N)c1,3.76
18,O=C(C1CC(=O)N(c2ccc(F)cc2)C1)N1CCC(c2nc3ccccc3[nH]2)CC1 (stereo not shown),3.42
19,COc1ccc(NC(=O)c2ccccc2C)c(OC)c1,2.31
20,COCCNC(=O)c1cccc(OC2CCN(Cc3ccccc3OC(F)F)CC2)c1,18.2
21,O=C1/C(=C/c2cccs2)SC(=S)N1CC(=O)N1CCCCC1CCO (stereo not shown),20.1
22,COC(=O)C(C(=O)NCC1CCCO1)C1CCCCCC1 (stereo not shown),-13.5

row,SMILES,"hERG current change (%, negative = inhibition) at 1uM [%]"
1,O=S(=O)(c1ccccc1)C1Cc2ccccc2C1Cl (stereo not shown),17.2
2,CC1=C(C(=O)OC(C)C)C(c2ccc(N(C)C)cc2)C2=C(CC(C)(C)CC2=O)N1 (stereo not shown),3.16
3,CCS(=O)(=O)c1ccc(C(=O)NC)c(Cl)c1Cl,8.25
4,CCc1nnc(SCC(=O)Nc2nc(C)c(C(=O)N(C)C)s2)n1CC,4.49
5,Cc1cc(OCC(=O)N(C(C)C)C(C)C)ccc1Cl,8.19
6,CCCC(=O)n1nc(-c2ccccc2)nc1SC,-6.37
7,COCCNC(=O)c1cnn2c(C(F)(F)F)cc(-c3ccc(C)cc3)nc12,3.95
8,C=CCC(NCc1ccco1)c1ccc(OC)cc1OC (stereo not shown),7.78
9,Cc1noc(NS(=O)(=O)c2ccc(N/C=C/C(=O)c3ccc4c(c3)OCO4)cc2)c1C,4.88
10,Cc1ccccc1Cc1c(C)nc2c(C(=O)NCc3ccco3)cnn2c1C,-9.09
11,Cc1ccc(C(=O)N/N=C/c2ccoc2)cc1C,-0.552
12,CSCCCNC(=S)Nc1ccc(N2CCOCC2)cc1N1CCOCC1,1.46
13,CN(C)/C=N/c1c(C(=O)NCc2ccccc2)nnn1Cc1ccccc1,-18
14,CC(CCc1ccco1)NC(=O)CCc1nnc2ccc(NCc3ccccc3Cl)nn12 (stereo not shown),15.6
15,Cn1cccc1/C=N/NC(=O)c1cccc(OC(F)(F)C(F)F)c1,4.66
16,Cc1ccc(-n2ncc(N(C)C)c(Cl)c2=O)cc1,5.43
17,CN1CCN(c2ccc(NC(=O)c3ccc(C(F)(F)F)cc3)cn2)CC1,-6.78
18,Cc1cc(C(=O)C(=O)NC(C)C)c(C)n1-c1ccc([N+](=O)[O-])cc1,1.14
19,Cc1cccc(OCCNc2cc(N3CCN(C)CC3)ccc2[N+](=O)[O-])c1,13.7
20,CN(C(=O)C1CCCN1S(=O)(=O)c1ccc(Cl)cc1)c1ccccc1 (stereo not shown),0.858
21,O=C(Nc1ccccc1C(F)(F)F)c1cc(-c2cccc(O)c2)on1,-5.7
22,COc1cccc(CN(CC(=O)NCc2ccc(F)cc2)C(=O)c2ccco2)c1,7.98

row,SMILES,"hERG current change (%, negative = inhibition) at 1uM [%]"
1,COc1ccc(Cc2nc3ccc(C(=O)N(C)CC4COCCO4)cc3o2)cc1 (stereo not shown),5.2
2,COc1ccc(CCC(=O)NCC23CC4CC(CC(C4)C2)C3)cc1,5.84
3,O=C(N=C1c2ccccc2CN1c1cccc(Cl)c1)c1cccnc1,7.89
4,O=C(Cc1cccc2ccccc12)NC(NC(=S)Nc1ccccc1Cl)C(Cl)(Cl)Cl (stereo not shown),9.74
5,COC1=CC(=Cc2c(N)n3nc(CC(=O)N4CCOCC4)sc3nc2=O)C=C(OC)C1=O,14.3
6,CCN(CC(=O)Nc1c(F)cccc1F)C(=O)COc1ccc2c(c1)CCC2,6.95
7,CS(=O)(=O)N(CC(=O)N1CCN(c2ccccc2)CC1)C1CCCCC1,12.4
8,CN1C(=O)Cc2cc(S(=O)(=O)Nc3ccc(Cl)cc3)ccc21,14.7
9,COC(=O)[C@@H]1C[C@@]2(O)[C@H](O)[C@H](O)[C@H](O)C[C@H]2N1Cc1ccc(C)s1,12.3
10,CC1=CCC2C(=O)N(c3cccc(C(=O)NCc4ccccc4)c3)C(=O)C2C1 (stereo not shown),12.6
11,Cc1cccc(-n2c(-c3ccccc3)c[nH]c2=S)c1C,12.7
12,CCN(CC(=O)Nc1c(F)cccc1F)C(=O)c1ccc2c(c1)NC(=O)C(C)S2 (stereo not shown),3.83
13,O=C(NCCc1ccccc1)c1cc2ncc(Br)cn2n1,3.21
14,O=C(OCC(=O)N1CCCc2ccccc21)c1cc(S(=O)(=O)N2CCOCC2)ccc1Cl,11.9
15,O=C(CNCc1ccc(F)cc1)Nc1ccccc1-c1ccccc1,7.28
16,NS(=O)(=O)c1ccc(CNC(=O)/C=C/c2cccc([N+](=O)[O-])c2)cc1,5.68
17,Cc1ccc(-c2nonc2NC(=O)c2ccco2)cc1,0.834
18,Cn1cc(CN2CCCCC2c2ccccn2)c(-c2ccc3c(c2)OCCO3)n1 (stereo not shown),9
19,O=C(CSc1nc2ccccc2c(=O)n1Cc1ccccc1)NCc1ccco1,-6.09
20,Clc1ccc(-c2cnc3n2CCCCC3)cc1,-7.48
21,CCOc1ccc(C(=O)Nc2cccc3ncccc23)cc1Br,8.75
22,CCOc1ccc(Br)cc1S(=O)(=O)N1CCCN(C)CC1,10.1
